The values below come from US12060334B2, “3-substituted phenazine derivatives as antimicrobial agents” (University of Florida Research Foundation, Incorporated, priority 2021, dated 2024).

In series [1] the test system is human red blood cells. The series can be described thus: Hemolysis assay with red blood cells. The following applies: human RBCs, 1 hour, 37° C.
The test system of series [2] is MRSE 35984. As to the kind of experiment: MIC susceptibility assay (broth microdilution). As to conditions: 16 h; for MIC: Staphylococcus epidermidis, MRSE, read-out: MIC MRSE 35984. A general note: In broth dilution the organism is exposed to a series of concentrations in liquid medium.
Series [3] relates to E. faecalis OG1RF. The series can be described thus: MIC susceptibility assay (broth microdilution). The following applies: 16 h.
In series [4] the test system is HeLa cells. The series can be described thus: LDH release assay for HeLa cytotoxicity. As to conditions: read-out: HeLa Cell Cytotox. (IC50), 24-h, tested at 25, 50 and 100 μM. (In general: Release of lactate dehydrogenase indicates damage to the cell membrane.)
Series [5] relates to MRSA-1707. The series can be described thus: MIC susceptibility assay (broth microdilution). The following applies: 16 h; for MIC MRSA-1707: planktonic growth inhibition, 37° C.
Series [6] deals with HepG2 cells. As to the kind of experiment: Alamar Blue cytotoxicity assay, HepG2. As to conditions: read-out: Hep G2 Cytotox. (IC50), 24-h. On the technique in general: Resazurin is reduced to fluorescent resorufin, in cell work by metabolically active cells.
For series [7], the system named is MRSA, MRSE and VRE strains. The series can be described thus: MIC assays, summary statements over several Gram-positive strains.
Series [8] concerns J774 MΦ. The series can be described thus: Alamar Blue cytotoxicity assay, J774 macrophages. As to conditions: read-out: J774 MΦ Cytotox. (IC50), 24-h.
Series [9] has as its system VRE 700221. The series can be described thus: MIC susceptibility assay (broth microdilution). As to conditions: 16 h; for MIC VRE 700221: planktonic growth inhibition, 37° C.
Series [10] deals with MRSA-44. The series can be described thus: MIC susceptibility assay (broth microdilution). The following applies: 16 h.
The subject of series [11] is Mtb CDC1551. The series is classed as cell-based, Mycobacterium tuberculosis.
Setting [12] is: planktonic growth inhibition, 37° C.

≈ marks a conversion by molar mass, not a printed value. Marks after values point to notes of the source that are not given here. A value given as a limit tells only on which side of the number the result lay.

As usually defined, the MIC is the smallest concentration in the dilution series that meets the test's criterion for growth inhibition. Usually IC50 stands for the concentration needed to halve the response being measured.

Regarding `Oc1c(Br)c(Cl)c(Br)c2nc3ccc(Br)cc3nc12` [Compound 36, 2,4,8-Tribromo-3-chlorophenazin-1-ol], the “% Hemolysis at 200 μM” value in [1] worked out at 5.1%. Further, the MIC in series [2] came out at 0.1 µM (≈ 0.0467 µg/mL); in series [3] (Enterococcus faecalis, OG1RF, read-out: MIC E. faecalis OG1RF), 0.78 µM (≈ 0.365 µg/mL).
On to `Oc1cc(Cl)cc2nc3ccc(I)cc3nc12` [Compound 27, 3-Chloro-8-iodophenazin-1-ol], for which the “% Hemolysis at 200 μM” value in series [1] is listed as 1.9%. Moreover, the IC50 in series [4] was determined as 100 µM. Besides, the minimal inhibitory concentration (MIC) in [5] (Staphylococcus aureus, MRSA, read-out: MIC MRSA-1707, planktonic growth inhibition, 16 h, 37° C.) came to 0.78 µM (≈ 0.278 µg/mL). In addition, the “MIC MRSA-1707” value in [5] amounted to 0.78 µM (≈ 0.278 µg/mL).
With `Oc1c(Br)c(Cl)c(Br)c2nc3c(Br)cccc3nc12` [Compound 35, 2,4,6-Tribromo-3-chlorophenazin-1-ol], the “% Hemolysis at 200 μM” value in series [1] is on record as no more than 1%. The IC50 was greater than 200 µM in series [6], 100 µM in series [4] and greater than 200 µM in series [8]. Besides, the MIC in series [2] came out at 0.1 µM (≈ 0.0467 µg/mL). Further, in series [7] (result in words), the “MICs against all Gram-positive strains in the panel” value is listed as “sub-micromolar”.
`Oc1cccc2nc3ccccc3nc12` [48 (1-OHP), 1-Hydroxyphenaizne, reference compound]: the “MIC VRE 700221” value in series [9] is greater than 50 µM. For the same compound, the “MIC MRSE 35984” value in [2] (setting [12]) is listed as 37.5^a μM. For the same compound, the “MIC MRSA-1707” value in series [5] was found to be 50 µM (≈ 9.81 µg/mL). Moreover, the “MIC E. faecalis OG1RF” value in series [3] (setting [12]) is greater than 50 µM. Besides, the “MIC MRSA-44” value in [10] (setting [12]) stood at 50 µM (≈ 9.81 µg/mL).
`Cc1c(Br)ccc2nc3c(O)cc(Cl)cc3nc12` [Compound 21, 7-Bromo-3-chloro-6-methylphenazin-1-ol]: in [1], the “% Hemolysis at 200 μM” value is no more than 1%. Also, the “MIC Mtb CDC1551” value in series [11] was 3.27 µM (≈ 1.06 µg/mL). The values for the half-inhibitory concentration (IC50) in series [6], in series [4] and in series [8] were greater than 200 µM, greater than 100 µM and greater than 200 µM, respectively. Further, the “MIC VRE 700221” value in series [9] was 1.17^a μM. For the same compound, the minimal inhibitory concentration (MIC) in series [2] was 0.78 µM (≈ 0.252 µg/mL); in series [7] (Staphylococcus epidermidis, MRSA|MRSE|VRE, read-out: MIC against Staphylococcus strains) it was 0.3 to 0.78 µM (≈ 0.0971 to 0.252 µg/mL); in series [10] (Staphylococcus aureus, MRSA, read-out: MIC MRSA-44), 0.3 µM (≈ 0.0971 µg/mL).
Regarding `Oc1cc(Cl)cc2nc3ccc(Br)cc3nc12` [Compound 26, 8-Bromo-3-chlorophenazin-1-ol], the MIC in [9] (Enterococcus, VRE, read-out: MIC VRE 700221) is greater than 50 µM; in series [2], greater than 50 µM.
